Measurements published in PubChem BioAssay AID504332 (National Center for Advancing Translational Sciences (NCATS), 2011).
About 31,000 (8.9%) of roughly 350,000 compounds were called active. The inconclusive results got no clear call from the source; some entries with a clear call stand among them for comparison. The call rests on the fitted dose curve; in most records, active means well fitted inhibition curve with a large enough effect; inconclusive means small, poorly fitted or top-dose-only effect; inactive means no such curve, though single readings can be large or run the other way. Potencies of inconclusive entries are doubtful fits and often do not repeat.

These molecules were tested against Histone-lysine N-methyltransferase EHMT2 (Homo sapiens) (UniProt Q96KQ7) (assay: qHTS Assay for Inhibitors of Histone Lysine Methyltransferase G9a). Conditions: G9a H3K9 monomethylation, AlphaScreen, 2 h; activity, negative = inhibition: at 59 µM (top of the series) unless noted.
Sequence of UniProt Q96KQ7 (Q96KQ7 whole entry, looked up): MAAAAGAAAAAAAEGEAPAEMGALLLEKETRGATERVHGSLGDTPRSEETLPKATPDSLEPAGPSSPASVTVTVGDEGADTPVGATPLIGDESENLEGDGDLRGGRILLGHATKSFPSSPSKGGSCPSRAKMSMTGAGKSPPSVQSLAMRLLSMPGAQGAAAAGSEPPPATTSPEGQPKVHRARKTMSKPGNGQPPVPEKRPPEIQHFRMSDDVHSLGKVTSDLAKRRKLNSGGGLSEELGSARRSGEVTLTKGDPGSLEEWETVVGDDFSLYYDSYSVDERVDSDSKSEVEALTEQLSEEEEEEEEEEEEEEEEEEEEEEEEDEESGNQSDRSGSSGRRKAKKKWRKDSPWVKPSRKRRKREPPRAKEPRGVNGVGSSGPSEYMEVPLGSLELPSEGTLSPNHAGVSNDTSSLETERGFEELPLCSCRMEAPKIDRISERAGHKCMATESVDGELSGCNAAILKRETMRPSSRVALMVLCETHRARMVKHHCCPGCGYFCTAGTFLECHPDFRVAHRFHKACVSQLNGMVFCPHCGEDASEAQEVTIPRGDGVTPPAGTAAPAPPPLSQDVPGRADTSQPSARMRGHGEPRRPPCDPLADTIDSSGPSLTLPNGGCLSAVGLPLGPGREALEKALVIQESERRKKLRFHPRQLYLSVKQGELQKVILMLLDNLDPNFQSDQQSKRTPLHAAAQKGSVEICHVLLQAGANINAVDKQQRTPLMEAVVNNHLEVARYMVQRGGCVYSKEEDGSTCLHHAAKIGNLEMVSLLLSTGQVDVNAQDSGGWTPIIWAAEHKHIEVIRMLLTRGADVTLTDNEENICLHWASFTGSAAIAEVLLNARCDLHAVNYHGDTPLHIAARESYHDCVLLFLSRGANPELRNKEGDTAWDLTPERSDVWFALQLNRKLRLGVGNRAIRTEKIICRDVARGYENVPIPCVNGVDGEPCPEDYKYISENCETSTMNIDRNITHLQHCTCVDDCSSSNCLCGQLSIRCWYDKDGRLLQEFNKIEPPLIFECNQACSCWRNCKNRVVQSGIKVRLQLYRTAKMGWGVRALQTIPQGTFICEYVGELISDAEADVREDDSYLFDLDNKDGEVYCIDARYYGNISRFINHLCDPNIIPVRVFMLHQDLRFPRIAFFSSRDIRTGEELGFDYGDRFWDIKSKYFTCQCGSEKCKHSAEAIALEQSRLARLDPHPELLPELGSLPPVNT
Method in brief: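 Quantitative HTS format: methyltransferase activity on a biotin-tagged H3K9 peptide is measured by AlphaScreen, using a rabbit anti-monomethyl-H3K9 antibody with streptavidin donor and anti-IgG acceptor beads. Final levels are 20 nM enzyme, 500 nM peptide, 20 uM SAM; 2 h RT.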
Further: nearly all actives have a fitted effect of over 75% in size.
On the % scale 0 is the no-effect control and ±100 the full control effect; potency means the concentration at half of the fitted maximal effect; tags describe the fitted curve by direction and shape.

| SMILES | Potency | activity, negative = inhibition |
| --- | --- | --- |
| CN(CC(=O)Nc1ccc(Cl)cc1F)S(=O)(=O)c1ccc2c(c1)n(C)c(=O)c(=O)n2C | inconclusive: 39.8 µM [inhibitor, single point] | – |
| Cc1ccc(N=Cc2nc(-c3ccco3)oc2O)cc1 | inactive | – |
| O=C(N[C@@H](Cc1ccccc1)C(=O)O)c1c(F)c(F)c(F)c(F)c1F | – | inconclusive: -79.8% [inhibitor] |
| Clc1ccccc1CSc1nnc(-c2ccco2)c(-c2ccco2)n1 | inconclusive: 7.08 µM [inhibitor, single point] | – |
| COc1cccc(NC(=O)c2ccccc2Oc2ccccc2)c1 | inconclusive: 100 µM [inhibitor, single point] | – |
| CCOc1ccc(N2CCCn3c2nc2c3c(=O)n(CCc3ccccc3)c(=O)n2C)cc1 | active: 3.16 µM | – |
| CCOc1cc(N2CCOCC2)c(OCC)cc1NC1=NCCCCC1 | inconclusive: 79.4 µM [inhibitor, single point] | – |
| CCOc1ccc(C2/C(=C(\O)c3ccc4c(c3)OCCO4)C(=O)C(=O)N2CCCn2ccnc2)cc1OC (centres undefined) | inactive | – |
| O=C(c1ccccc1-c1ccccc1)N1CCN(c2ccccn2)CC1 | inactive | – |
| Cc1cccc(NC(=O)C2C3C=CC(O3)C2C(=O)O)c1C (centres undefined) | active: 35.5 µM | – |
| C(=N\N1CCOCC1)/c1cn(-c2ccccc2)nc1-c1ccccc1 | active: 50.1 µM | – |
| COc1ccc(NC(=O)c2c3c(nc4ccccc24)CCN(Cc2ccccc2)C3)c(OC)c1 | inconclusive: 44.7 µM [inhibitor, partial curve] | – |
| Cc1cccn2c(=O)c3cc(C(=O)NCc4cccnc4)c(=N)n(CC4CCCO4)c3nc12 (centres undefined) | inactive | – |
| O=C(/C=C\c1ccc(-c2ccccc2)o1)c1ccccc1 | active: 10 µM | – |
| O=C(CSc1nc2c(cnn2-c2ccc(F)cc2)c(=O)[nH]1)Nc1nccs1 | inconclusive: 89.1 µM [inhibitor, single point] | – |
| COc1ccc2c(c1)c1ncn(CC3CCCO3)c(=O)c1n2C (centres undefined) | inconclusive: 79.4 µM [inhibitor, partial curve, poor fit] | – |
| Cc1ccc2c(c1)C(c1ccccc1)N(C(=O)c1ccc(S(=O)(=O)N3CCCCC3)cc1)CC(=O)N2 (centres undefined) | inactive | – |
| CCCN1CCC(NCC(C)c2ccccc2)CC1 (centres undefined) | inconclusive: 79.4 µM [inhibitor, single point] | – |
| Cc1nc(NCCCN2CCOCC2)c2oc3ccccc3c2n1 | inconclusive: 89.1 µM [inhibitor, single point] | – |
| CCN(CC)CCNCC1C(=O)O[C@@H]2C[C@@]3(C)CCC[C@H](C)C3=C[C@H]12 (some centres undefined) | – | inactive: 2.98% [at 12.7 µM] |
| COc1ccc(C(CNC(=O)c2cc3ccccc3cc2O)N2CCOCC2)cc1 (centres undefined) | inconclusive: 50.1 µM [inhibitor, partial curve, poor fit] | – |
| O=C(NCCn1cc(SCc2ccccc2F)c2ccccc21)c1cccs1 | inactive | – |
| Cc1nn(CC(=O)Nc2ccc3c(c2)nc(CN2CCCC2)n3C)c(=O)c2ccccc12 | inconclusive: 22.4 µM [inhibitor, single point] | – |

| SMILES | Potency | activity, negative = inhibition |
| --- | --- | --- |
| C/C(=N\NC(=O)c1cc(O)ccc1O)c1cccc(NC(=O)c2ccc(Cl)cc2)c1 | active: 15.8 µM | – |
| O=C(NC1=NN(c2ccccc2)CC1)Nc1ccccc1F | inconclusive: 8.91 µM [inhibitor, partial curve, poor fit] | – |
| CCOC(=O)N1CC=C2C(C#N)=C(N)C(C#N)(C#N)[C@H](c3ccc(OCC)c(OCC)c3)[C@H]2C1 | – | inconclusive: -60.3% [inhibitor] |
| Oc1c(C(c2ccccc2)N2CCN(c3cccc(Cl)c3)CC2)sc2nc(-c3ccco3)nn12 (centres undefined) | inconclusive: 11.2 µM [inhibitor, partial curve] | – |
| O=C(Nc1ccc(Br)cc1Cl)Nn1cnnc1 | inconclusive: 79.4 µM [inhibitor, partial curve, poor fit] | – |
| COCCCN1C(=O)C(=O)/C(=C(/O)c2ccccc2)C1c1ccc2c(c1)OCO2 (centres undefined) | active: 56.2 µM | – |
| C/C(N)=C(/C#N)C(=O)CSc1nc2scc(-c3ccc(F)cc3)c2c(=O)n1C | inconclusive: 11.2 µM [inhibitor, partial curve, poor fit] | – |
| Cc1c(C(=O)Nc2ccccc2Cl)sc2ncnc(N(C)C3CCCCC3)c12 | inactive | – |
| CCCN1CCN(S(=O)(=O)c2ccc3c(c2)OCCO3)CC1 | inconclusive: 28.2 µM [inhibitor, partial curve, poor fit] | – |
| CCc1ccc(CNC(=O)C2CCCN(c3nnc(C)c4c(C)n(-c5ccc(OC)cc5)nc34)C2)cc1 (centres undefined) | active: 10 µM | – |
| O=C1NC(=O)N(c2ccccc2)C1=O | inconclusive: 79.4 µM [inhibitor, single point] | – |
| O=C1COc2ccc(-c3cc(-c4ccc(F)cc4)c4c(n3)-c3cc(Cl)ccc3OC4)cc2N1 | inactive | – |
| Cc1cc(COc2ccccc2)oc1C(=O)O | – | inconclusive: -58.2% [inhibitor] [at 0.501 µM] |
| CCN(CC)c1ccc(/C=N/NC(=O)c2cccc(S(=O)(=O)Nc3ccccc3OC)c2)c(O)c1 | inactive | – |
| Cc1ccc(/C=N/NC(=O)C2(O)c3ccccc3-c3ccccc32)o1 | active: 56.2 µM | – |
| Cc1ccc(Oc2ccc(NC(=O)CCC(=O)OCC(=O)c3cccs3)cc2)cc1C | – | inconclusive: -107% [inhibitor] |
| N/C(=N\OC(=O)c1ccco1)c1ccccn1 | inconclusive: 70.8 µM [inhibitor, partial curve] | – |
| O=C(NCc1ccc(F)cc1)N[C@@H](Cc1ccccc1)C(=O)O | inconclusive: 28.2 µM [inhibitor, partial curve, poor fit] | – |
| O=C(NC(Cc1ccccc1)C(=O)NC1CC1)OCc1ccccc1 (centres undefined) | inconclusive: 0.355 µM [inhibitor, full curve, poor fit] | – |
| Cc1ccc(C(=O)NNC2=NCCC2)cc1 | inconclusive: 1.26 µM [inhibitor, full curve, poor fit] | – |
| C=CCNC(=S)NNC(=O)CSc1nc2ccccc2s1 | active: 28.2 µM | – |
| Nc1cc(S(=O)(=O)Nc2ccccc2Cl)ccc1N1CCCC1 | inconclusive: 79.4 µM [inhibitor, single point] | – |
| CCOC(=O)c1c(C)oc2c1c(C=NCc1ccccn1)c(O)c1ccccc12 | inconclusive: 3.16 µM [inhibitor, partial curve, poor fit] | – |

| SMILES | Potency | activity, negative = inhibition |
| --- | --- | --- |
| O=C1c2cccc([N+](=O)[O-])c2C(=O)N1c1ccccc1 | inconclusive: 25.1 µM [inhibitor, partial curve, poor fit] | – |
| CCOc1ccc(CC(=O)Nc2nccs2)cc1OCC | inconclusive: 56.2 µM [inhibitor, partial curve, poor fit] | – |
| COc1ccccc1NS(=O)(=O)c1ccc2nc(CCl)[nH]c2c1 | active: 20 µM | – |
| CC(=O)Nc1nc2ccccc2n1CCN1CCOCC1 | inconclusive: 39.8 µM [inhibitor, single point] | – |
| Cc1ccccc1N1C(=O)c2ccccc2N2C(=O)c3ccccc3C12 (centres undefined) | inconclusive: 100 µM [inhibitor, partial curve, poor fit] | – |
| CCn1c(SCC(=O)N2CCN(c3ccccc3)CC2)nc2c(c1=O)SC(C)C2 (centres undefined) | inconclusive: 17.8 µM [inhibitor, partial curve, poor fit] | – |
| O=C(/C=C/c1ccc([N+](=O)[O-])cc1)c1ccco1 | inactive | – |
| CCOC(=O)Cn1c(=O)n(C2CCCCC2)c2nc(-c3ccc(OCC)cc3)nc(C(N)=O)c21 | inactive | – |
| O=C(O)CCCCCNS(=O)(=O)c1cccc2c1C(=O)c1ccccc1C2=O | inconclusive: 79.4 µM [inhibitor, partial curve, poor fit] | – |
| COc1cccc(-n2ccnc2SCC(=O)Nc2ccc(Cl)c(Cl)c2)c1 | inactive | – |
| Nc1c(/C=C2/C=CC(=O)C(O)=C2)c(=O)nc2sc(CC(=O)N3CCCC3)nn12 | active: 35.5 µM | – |
| CCOc1cc(CN2CCN(C(=O)c3cccc4ccccc34)CC2)ccc1OC | active: 22.4 µM | – |
| COc1ccc(-n2c(SCC(=O)N3CCCCC3)nnc2-c2cccnc2)cc1 | inconclusive: 0.794 µM [inhibitor, partial curve, poor fit] | – |
| CCCN1C(=O)/C(=C/c2c(NCCCOCC)nc3c(C)cccn3c2=O)SC1=S | inactive | – |
| COCCOC(=O)c1c(C)oc2c1cc(NS(=O)(=O)c1ccc(Cl)c(C)c1)c1ccccc12 | inactive | – |
| CCOC(=O)CNC(=O)CSc1nnc(-c2ccncc2)n1-c1ccc(Cl)cc1 | inconclusive: 89.1 µM [inhibitor, single point] | – |
| C=CCN(C(=O)CCC(=O)Nc1cc(C)on1)C(C(=O)NC1CCCC1)c1ccc(C)cc1 (centres undefined) | inconclusive: 79.4 µM [inhibitor, single point] | – |
| COc1cccc(NC(=O)CSc2nc3c(c(-c4ccco4)c2C#N)CCCC3)c1 | inconclusive: 100 µM [inhibitor, single point] | – |
| CC(=O)c1cccc(N(C(=O)c2ccco2)C(C(=O)NC2CCCC2)c2ccncc2)c1 (centres undefined) | inconclusive: 10 µM [inhibitor, partial curve, poor fit] | – |
| CC12CCC(=O)N1C(C(=O)O)Cc1c2[nH]c2ccccc12 (centres undefined) | inconclusive: 25.1 µM [inhibitor, single point] | – |
| COc1ccc(NC(=O)c2ccccc2NC(=O)c2ccco2)c(OC)c1 | inconclusive: 56.2 µM [inhibitor, partial curve, poor fit] | – |
| O=C(c1csc2ccccc12)n1cccn1 | inactive | – |
| O=C(CSc1nnc(Cc2cccs2)n1Cc1ccco1)Nc1ccc(Cl)cc1Cl | inconclusive: 31.6 µM [inhibitor, single point] | – |
